Measured values reported in PubChem BioAssay AID894 (National Center for Advancing Translational Sciences (NCATS), 2007).
About 6,500 (4.3%) of roughly 150,000 compounds were called active. Inconclusive results, whose numbers are uncertain, are shown with a selection of clear calls. Calls come from the whole dose curve; as a rule, active = well fitted inhibition curve with a large enough effect (not every such curve was filed as active); inconclusive = small, poorly fitted or top-dose-only effect, or another doubt; inactive = no such curve, though single readings can be large or run the other way. No potency is given beside an inconclusive call; the fits are too rough.

The molecules below were run against 15-hydroxyprostaglandin dehydrogenase [NAD(+)] (Homo sapiens) (UniProt P15428) (assay: qHTS Assay for Inhibitors of HPGD (15-Hydroxyprostaglandin Dehydrogenase)). Conditions: purified HPGD, NADH fluorescence kinetic, PGE2 substrate; activity change, negative = inhibition: stronger effect = lower value.
Summary of the method: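 20 nM HPGD preincubated 15 min at room temperature with compound in 50 mM Tris-HCl pH 8, 0.01% Tween 20. Started with 1 mM NAD+ and 30 uM prostaglandin E2; NADH fluorescence (360/450 nm) read 5 times over 30-s intervals, last minus first.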
% is set by controls: 0 for no effect and ±100 for the full control effect; potency is the fitted concentration of half-maximal effect; tags give direction and shape of the fitted curve.

Chain of UniProt P15428 (P15428 whole entry, looked up): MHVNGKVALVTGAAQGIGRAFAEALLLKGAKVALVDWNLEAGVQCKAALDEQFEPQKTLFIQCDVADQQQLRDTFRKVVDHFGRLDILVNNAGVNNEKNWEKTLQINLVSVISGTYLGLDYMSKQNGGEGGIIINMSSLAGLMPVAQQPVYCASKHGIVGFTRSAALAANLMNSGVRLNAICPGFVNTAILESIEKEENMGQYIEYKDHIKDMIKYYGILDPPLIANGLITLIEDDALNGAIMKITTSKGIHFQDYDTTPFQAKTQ

Row | SMILES | Potency | activity change, negative = inhibition
1 | CCC1CCCCN1C(=O)C1CC(c2cc(Cl)c(OC)cc2OC)=NO1 (configuration not stated) | active: 14.1 µM | 
2 | COC(=O)C1=CNC=C(C(=O)OC)C1c1ccccc1Cl | inconclusive [inhibitor, partial curve] | 
3 | O=C(CN1CCN(CC(=O)Nc2ccccc2C(F)(F)F)CC1)Nc1ccccc1F |  | inactive: -7.75%
4 | CCCCCCC(=O)c1c(C)[nH]c(C(=O)OCC)c1C |  | inactive: -10%
5 | CCc1ccc(NC(=O)c2cnn(-c3ccccc3)c2C)cc1 | active: 2.51 µM | 
6 | COc1ccccc1CN1CC[C@@]2(CCCN(C(=O)c3cnccn3)C2)C1 |  | inactive: -4.87%
7 | O=C(c1cnn2c(C(F)F)cc(-c3ccccc3)nc12)N1CCCc2ccccc21 |  | inactive: 2.79%
8 | Cc1ccn(C(=O)c2cc3c(C)nn(-c4ccccc4)c3s2)n1 | inconclusive [inhibitor, partial curve] | 
9 | C1CSC2(N1)C1CC3CC(C1)CC2C3 (configuration not stated) |  | inactive: -10.9%
10 | CCCc1c(O)c2ccccc2[nH]c1=O | inconclusive [inhibitor, partial curve] | 
11 | CC1Cc2ccccc2N1C(=O)CSc1nnc(-c2ccccc2)c(-c2ccccc2)n1 (configuration not stated) |  | inactive: -17.4%
12 | Cc1ccc(-n2nnnc2SCn2nnc3ccccc3c2=O)cc1 |  | inactive: -23.7%
13 | COc1ccc(S(=O)(=O)N2CCCCCC2)cc1NC(=O)Cc1cc(OC)c(OC)c(OC)c1 |  | inactive: 0.323%
14 | CCCc1cc(C(=O)Nc2cccnc2)no1 |  | inactive: -16.7%
15 | CC(=O)c1ccc(N2CCN(C(=O)C3(S(=O)(=O)c4ccc(Cl)cc4)CC3)CC2)cc1 | inconclusive [inhibitor, partial curve] | 
16 | COc1ccccc1C(=O)Nc1nc(-c2cccs2)c(NC(C)=O)s1 | inconclusive [inhibitor, partial curve] | 
17 | CC1CN(S(=O)(=O)c2ccc(NC(=O)c3cc(-c4ccccc4O)n[nH]3)cc2)CC(C)O1 (configuration not stated) | active: 14.1 µM | 
18 | CC(C)=NOc1nc(N(C)C)nc(N(C)C)n1 |  | inactive: -2.69%
19 | Cc1noc(C)c1-c1ccc2ncnc(N(C)Cc3ccco3)c2c1 | active: 12.6 µM | 
20 | O=[N+]([O-])c1ccccc1Oc1ccccc1Cl | active: 31.6 µM | 
21 | CCN(CC)c1ccc(/C=N/NC(=O)Cc2nnc(NC(=O)Nc3ccccc3)s2)cc1 | inconclusive [inhibitor, partial curve] | 
22 | COc1cccc(-c2[nH]nc3c2C(c2ccoc2)C(C#N)=C(N)O3)c1 (configuration not stated) | active: 28.2 µM | 
23 | COC(=O)c1cccc(S(=O)(=O)N(Cc2ccco2)Cc2cc3cc(OC)c(OC)cc3[nH]c2=O)c1 | inconclusive [inhibitor, partial curve] | 
24 | c1ccc(-c2nnc(CSc3nncs3)o2)cc1 | active: 25.1 µM | 

Row | SMILES | Potency | activity change, negative = inhibition
25 | CN(C)C(=O)c1ccc(-c2nc(N(C)Cc3ccco3)c3ccccc3n2)cc1 | active: 12.6 µM | 
26 | N#Cc1c(-c2ccccc2)[nH]c(=S)[nH]c1=O |  | inactive: -11.4%
27 | O=C(Nc1ccc(C(=O)N2CCOCC2)cc1)Nc1cccc(Cl)c1 | active: 28.2 µM | 
28 | O=C(Nc1ccon1)c1csc2c1CCCC2 | inconclusive [inhibitor, partial curve] | 
29 | Cc1cc(C(=O)COC(=O)C2=COCCO2)c(C)n1-c1ccc2c(c1)OCO2 | active: 15.8 µM | 
30 | COc1ccccc1/C=N/NC(=O)c1ccc(Cn2nc([N+](=O)[O-])cc2C)cc1 | inconclusive [inhibitor, partial curve] | 
31 | c1ccc2c(c1)NC1(CCCC1)n1c-2nc2ccccc21 | inconclusive [inhibitor, partial curve] | 
32 | COCc1cc(C)n(CC(=O)NC(C)c2ccccc2)c(=O)c1C#N (configuration not stated) | inconclusive [inhibitor, partial curve] | 
33 | Cc1cc(=O)oc2ccc(OCC(=O)N3CCC(C)CC3)cc12 | inconclusive [inhibitor, partial curve] | 
34 | COc1ccc(OC)c(-c2c3cc(O)c(=O)cc-3oc3cc(O)c(O)cc23)c1 | active: 14.1 µM | 
35 | COc1ccccc1OCc1ccc(C(=O)NCC2CCCO2)o1 (configuration not stated) | inconclusive [inhibitor, partial curve] | 
36 | COc1ccc(-c2cc(C(=O)OCC(=O)c3cccc([N+](=O)[O-])c3)c3cc(C)ccc3n2)cc1 |  | inactive: -2.18%
37 | CCn1nc(C)c(NC(=O)/C=C/c2cnn(C)c2)c1C |  | inactive: 1.8%
38 | C=C1C(=O)[C@@]23[C@H](O)C[C@@H]4C(C)(C)CC[C@H](O)[C@@]4(C)[C@@H]2CC[C@@H]1[C@H]3O |  | inactive: -21.4%
39 | COc1cc(O)c(C(=O)/C=C/c2ccc(O)c(OC)c2)c(OC)c1 | inconclusive [inhibitor, single point] | 
40 | CN(C)C=Nc1ncc2c3ccccc3n(Cc3ccccc3)c2c1C#N | inconclusive [inhibitor, partial curve] | 
41 | O=C(O)c1cccc(S(=O)(=O)Nc2ccc(O)cc2Sc2nc3ccccc3s2)c1 | active: 10 µM | 
42 | COC(=O)c1sc2ccccc2c1N | inconclusive [inhibitor, partial curve] | 
43 | CCOc1ccc(NC(=O)C2CCN(c3nnnn3-c3ccccc3)CC2)cc1 |  | inactive: -3.24%
44 | C[C@H](O)CO[C@H]1[C@H]2O[C@H]3[C@H](O)[C@@H](O)[C@@H](O[C@H]4[C@H](O)[C@@H](O)[C@@H](O[C@H]5[C@H](O)[C@@H](O)[C@@H](O[C@H]6[C@H](O)[C@@H](OC[C@H](C)O)[C@@H](O[C@H]7[C@H](O)[C@@H](OC[C@H](C)O)[C@@H](O[C@H]8[C@H](O)[C@@H](O)[C@@H](O[C@@H]([C@@H]1O)[C@@H](CO)O2)O[C@@H]8CO)O[C@@H]7CO)O[C@@H]6CO)O[C@@H]5CO)O[C@@H]4CO)O[C@@H]3CO |  | inactive: -6.94%
45 | Cc1ccc(N=C2NC(=O)CS2)cc1 | inconclusive [inhibitor, partial curve] | 
46 | CC1CCCCN1CC(=O)NCc1ccc2c(c1)OCO2 (configuration not stated) | active: 8.91 µM | 
47 | C#CCn1c(=NC(=O)c2cccs2)sc2cccc(OC)c21 | inconclusive [inhibitor, partial curve] | 
48 | CC1CCCCC1NC(=O)CN1C(=O)CSc2cc(S(=O)(=O)N3CCCCCC3)ccc21 (configuration not stated) |  | inactive: -1.59%

Row | SMILES | Potency | activity change, negative = inhibition
49 | Cc1ccc(S(=O)(=O)C/N=C(/NC(=S)N(c2ccccc2)c2ccccc2)c2ccccc2)cc1 | active: 31.6 µM | 
50 | Cc1ccc(S(=O)(=O)N2CCCOC2CNC(=O)C(=O)NCc2cccnc2)cc1 (configuration not stated) |  | inactive: -1.57%
51 | COc1cccc(C(=O)N/N=C/C(Br)=C/c2ccccc2)c1 |  | inactive: -25.3%
52 | CCCCCCC(=O)Nc1ccc(C(=O)N/N=C/c2cccnc2)cc1 | inconclusive [inhibitor, single point] | 
53 | CCCCc1c(O)nc(SCC(=O)N2CCOCC2)[nH]c1=O |  | inactive: 3.5%
54 | Cc1ccccc1OCC(=O)Nc1ccc(N2CCN(C(=O)C(C)C)CC2)c(Cl)c1 | inconclusive [inhibitor, partial curve, poor fit] | 
55 | CCSC1(SCC)N=C(N)C2(C#N)C(c3ccc(OC)c(OC)c3OC)C12C#N (configuration not stated) | active: 8.91 µM | 
56 | CN(C)/C=C/C(=O)c1ccc(Cl)cc1 | active: 17.8 µM | 
57 | CCCCCCCC(=O)N/N=C(\C)c1ccc(O)cc1O | inconclusive [inhibitor, partial curve] | 
58 | Cc1cccc(NCCC#N)c1 |  | inactive: -8.4%
59 | CCOC(=O)C1=C(O)C(=O)N(c2ccc(S(N)(=O)=O)cc2)C1c1ccc(Cl)cc1 (configuration not stated) | inconclusive [inhibitor, partial curve] | 
60 | CC(C)n1c(-c2cccnc2)nc2cnccc21 |  | inactive: -13.7%
61 | CCCCCCc1cc2cc(S(=O)(=O)c3ccc(C)cc3)c(=O)oc2cc1O | inconclusive [inhibitor, full curve] | 
62 | COC(=O)c1nn(-c2ccccc2)c(Cl)c1/C=N/OCc1ccc(Cl)cc1Cl |  | inactive: -6.8%
63 | COC(=O)c1ccc(OCC2c3cc(OC)c(OC)cc3CCN2C(=O)c2ccco2)cc1 (configuration not stated) | inconclusive [inhibitor, partial curve, poor fit] | 
64 | O=C(O)c1cc(NCc2ccccc2)ccc1N1CCOCC1 | inconclusive [inhibitor, partial curve] | 
65 | Cc1csc(NC(=O)/C=C/c2ccc(C)o2)n1 | inconclusive [inhibitor, partial curve] | 
66 | Nc1c(C(=O)c2ccccc2)sc2c1c(=O)[nH]c(=O)n2-c1ccccc1 | inconclusive [inhibitor, partial curve] | 
67 | Clc1ccc(Cc2nnc(-c3cccs3)o2)cc1 | inconclusive [inhibitor, partial curve, poor fit] | 
68 | c1ccc(Cc2nnc3sc(-c4ccccn4)nn23)cc1 | inconclusive [inhibitor, partial curve] | 
69 | C[N+]1(NCC[N@@+]2(C)CCc3ccccc3C2)CCCCC1 |  | inactive: -9.38%
70 | CC1CCCCC1NC(=O)c1ccc(CNc2c(N3CCCC3)c(=O)c2=O)cc1 (configuration not stated) | active: 12.6 µM | 
71 | COc1ccc(-n2ncc3c(N4CCc5ccccc54)ncnc32)cc1 | inconclusive [inhibitor, partial curve] | 
72 | COC(=O)c1cc(C#N)c(NCc2ccccc2)nc1C | inconclusive [inhibitor, partial curve] | 
